In the supplement of paper PMC4604168 (melanoma cell lines):
The other results are listed elsewhere or left out. Most values come without repeats; read them as rough.
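Further: cell number obtained by counting DAPI-stained nuclei in high-throughput microscope images with image analysis software, screen run in 1,536-well plates.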

Each molecule was assayed on WM115 (assay: cell count relative to DMSO control; melanoma cells; higher = more viable cells). Conditions: library dose: low library concentration; 72 h.
`CC(=O)O[C@@]12CO[C@@H]1C[C@H](O)[C@@]1(C)C(=O)[C@H](O)C3=C(C)[C@@H](OC(=O)[C@H](O)[C@@H](NC(=O)OC(C)(C)C)c4ccccc4)C[C@@](O)([C@@H](OC(=O)c4ccccc4)[C@H]21)C3(C)C` [Docetaxel] + Nc1cccc2c1CN(C1CCC(=O)NC1=O)C2=O [lenalidomide] (first compound 0.0001 µM, partner dose 1 µM) showed a cell count of 70.6%.
With `CC(=O)O[C@@]12CO[C@@H]1C[C@H](O)[C@@]1(C)C(=O)[C@H](O)C3=C(C)[C@@H](OC(=O)[C@H](O)[C@@H](NC(=O)OC(C)(C)C)c4ccccc4)C[C@@](O)([C@@H](OC(=O)c4ccccc4)[C@H]21)C3(C)C` [Docetaxel] + O=C(O)c1ccc(-c2c[nH]c3ncc(-c4ccccc4)cc23)cc1C1CCCC1 [GSK650394] (first compound 0.0001 µM, partner dose 0.16 µM) the cell count was 63.1%.
With `Nc1nc(F)nc2c1ncn2[C@@H]1O[C@H](CO)[C@@H](O)[C@@H]1O` [fludarabine] + CC1(C)NC(=O)N(c2ccc([N+](=O)[O-])c(C(F)(F)F)c2)C1=O [nilutamide] (first compound 0.2 µM, partner dose 1 µM) the cell count was 92.9%.
Molecule `Nc1nc(F)nc2c1ncn2[C@@H]1O[C@H](CO)[C@@H](O)[C@@H]1O` [fludarabine] + c1cc(-c2cnn3cc(-c4ccc(OCCN5CCCCC5)cc4)cnc23)ccn1 [Dorsomorphin] (first compound 0.2 µM, partner dose 0.4 µM) has a cell count of 97.5%.
Molecule `Nc1nc(F)nc2c1ncn2[C@@H]1O[C@H](CO)[C@@H](O)[C@@H]1O` [fludarabine] + CCN(CC)CCCCNc1ncc2cc(-c3cc(OC)cc(OC)c3)c(NC(=O)NC(C)(C)C)nc2n1 [PD173074] (first compound 0.2 µM, partner dose 0.1 µM) has a cell count of 85.8%.
With `Nc1nc(F)nc2c1ncn2[C@@H]1O[C@H](CO)[C@@H](O)[C@@H]1O` [fludarabine] + C=CCNC1=C2C[C@@H](C)C[C@H](OC)[C@H](O)[C@@H](C)/C=C(\C)[C@H](OC(N)=O)[C@@H](OC)/C=C\C=C(/C)C(=O)NC(=CC1=O)C2=O [Tanespimycin] (first compound 0.2 µM, partner dose 0.002 µM) the cell count was 97%.
`Nc1nc(F)nc2c1ncn2[C@@H]1O[C@H](CO)[C@@H](O)[C@@H]1O` [fludarabine] + C=CCn1c(=O)c2cnc(Nc3ccc(N4CCN(C)CC4)cc3)nc2n1-c1cccc(C(C)(C)O)n1 [MK1775] (first compound 0.2 µM, partner dose 0.02 µM) showed a cell count of 73.9%.
Work on `CC(=O)c1c(C)c2cnc(Nc3ccc(N4CCNCC4)cn3)nc2n(C2CCCC2)c1=O` [palbociclib] + CN(C)S(=O)(=O)c1ccc2c(c1)/C(=C/c1cc3c([nH]1)CCCC3)C(=O)N2 [SU6656] (first compound 0.04 µM, partner dose 0.4 µM) yielded a cell count of 70.7%.
`CC(=O)c1c(C)c2cnc(Nc3ccc(N4CCNCC4)cn3)nc2n(C2CCCC2)c1=O` [palbociclib] + Cn1cncc1[C@@](N)(c1ccc(Cl)cc1)c1ccc2c(c1)c(-c1cccc(Cl)c1)cc(=O)n2C [tipifarnib] (first compound 0.04 µM, partner dose 0.01 µM) was tested, and the cell count was 66.1%.
With `Nc1ccn([C@@H]2O[C@H](CO)[C@@H](O)C2(F)F)c(=O)n1` [gemcitabine] + Nc1cccc2c1CN(C1CCC(=O)NC1=O)C2=O [lenalidomide] (first compound 0.0004 µM, partner dose 1 µM) the cell count was 89.4%.
`Nc1nc(F)nc2c1ncn2[C@@H]1O[C@H](CO)[C@@H](O)[C@@H]1O` [fludarabine] + Clc1ccc(Nc2nnc(Cc3ccncc3)c3ccccc23)cc1 [vatalanib] (first compound 0.2 µM, partner dose 2 µM) showed a cell count of 88%.
`Nc1nc(F)nc2c1ncn2[C@@H]1O[C@H](CO)[C@@H](O)[C@@H]1O` [fludarabine] + C#Cc1cccc(Nc2ncnc3cc(OCCOC)c(OCCOC)cc23)c1 [erlotinib] (first compound 0.2 µM, partner dose 0.8 µM) gave a cell count of 88.1%.
`Nc1nc(F)nc2c1ncn2[C@@H]1O[C@H](CO)[C@@H](O)[C@@H]1O` [fludarabine] + O=C(O)C(=O)Nc1sc2c(c1C(=O)O)CCNC2 [TCS401] (first compound 0.2 µM, partner dose 1.66667 µM) showed a cell count of 93.3%.
Molecule `CC(=O)O[C@@]12CO[C@@H]1C[C@H](O)[C@@]1(C)C(=O)[C@H](O)C3=C(C)[C@@H](OC(=O)[C@H](O)[C@@H](NC(=O)OC(C)(C)C)c4ccccc4)C[C@@](O)([C@@H](OC(=O)c4ccccc4)[C@H]21)C3(C)C` [Docetaxel] + O=c1cc(-c2cccc3c2Sc2ccccc2S3)oc(N2CCOCC2)c1 [KU55933] (first compound 0.0001 µM, partner dose 1 µM) has a cell count of 60.1%.
Molecule `Nc1ccn([C@@H]2O[C@H](CO)[C@@H](O)C2(F)F)c(=O)n1` [gemcitabine] + Cc1cc([N+](=O)[O-])ccc1NS(=O)(=O)c1cc(Cl)ccc1Cl [FH535] (first compound 0.0004 µM, partner dose 1 µM) has a cell count of 91.6%.
`CC(=O)c1c(C)c2cnc(Nc3ccc(N4CCNCC4)cn3)nc2n(C2CCCC2)c1=O` [palbociclib] + O=C(O)c1ccc(-c2c[nH]c3ncc(-c4ccccc4)cc23)cc1C1CCCC1 [GSK650394] (first compound 0.04 µM, partner dose 0.16 µM) was tested, and the cell count was 78.1%.
Molecule `CO[C@H]1C[C@@H]2CC[C@@H](C)[C@@](O)(O2)C(=O)C(=O)N2CCCC[C@H]2C(=O)O[C@H]([C@H](C)C[C@@H]2CC[C@@H](OCCO)[C@H](OC)C2)CC(=O)[C@H](C)/C=C(\C)[C@@H](O)[C@@H](OC)C(=O)[C@H](C)C[C@H](C)/C=C/C=C/C=C/1C` [everolimus] + CCCCCCCCCCCC1=C(O)C(=O)C=C(O)C1=O [Embelin] (first compound 0.02 µM, partner dose 1.2 µM) has a cell count of 79.1%.
`Nc1ncn([C@H]2C[C@H](O)[C@@H](CO)O2)c(=O)n1` [decitabine] + CC(C)(C)c1cnc(CSc2cnc(NC(=O)C3CCNCC3)s2)o1 [SNS-032] (first compound 0.1 µM, partner dose 0.01 µM) showed a cell count of 67.9%.
`CO[C@H]1C[C@@H]2CC[C@@H](C)[C@@](O)(O2)C(=O)C(=O)N2CCCC[C@H]2C(=O)O[C@H]([C@H](C)C[C@@H]2CC[C@@H](OCCO)[C@H](OC)C2)CC(=O)[C@H](C)/C=C(\C)[C@@H](O)[C@@H](OC)C(=O)[C@H](C)C[C@H](C)/C=C/C=C/C=C/1C` [everolimus] + Cn1nnc2c(C(N)=O)ncn2c1=O [temozolomide] (first compound 0.02 µM, partner dose 2 µM) showed a cell count of 77.9%.
Molecule `CO[C@H]1C[C@@H]2CC[C@@H](C)[C@@](O)(O2)C(=O)C(=O)N2CCCC[C@H]2C(=O)O[C@H]([C@H](C)C[C@@H]2CC[C@@H](OCCO)[C@H](OC)C2)CC(=O)[C@H](C)/C=C(\C)[C@@H](O)[C@@H](OC)C(=O)[C@H](C)C[C@H](C)/C=C/C=C/C=C/1C` [everolimus] + Cn1cncc1[C@@](N)(c1ccc(Cl)cc1)c1ccc2c(c1)c(-c1cccc(Cl)c1)cc(=O)n2C [tipifarnib] (first compound 0.02 µM, partner dose 0.01 µM) has a cell count of 78.6%.
`Nc1nc(F)nc2c1ncn2[C@@H]1O[C@H](CO)[C@@H](O)[C@@H]1O` [fludarabine] + COCC[n+]1c2c(n(Cc3cnccn3)c1C)C(=O)c1ccccc1C2=O [YM155] (first compound 0.2 µM, partner dose 0.0004 µM) was tested, and the cell count was 68%.
`CO[C@H]1C[C@@H]2CC[C@@H](C)[C@@](O)(O2)C(=O)C(=O)N2CCCC[C@H]2C(=O)O[C@H]([C@H](C)C[C@@H]2CC[C@@H](OCCO)[C@H](OC)C2)CC(=O)[C@H](C)/C=C(\C)[C@@H](O)[C@@H](OC)C(=O)[C@H](C)C[C@H](C)/C=C/C=C/C=C/1C` [everolimus] + c1cc(-c2cnn3cc(-c4ccc(OCCN5CCCCC5)cc4)cnc23)ccn1 [Dorsomorphin] (first compound 0.02 µM, partner dose 0.4 µM) was tested, and the cell count was 79.3%.
With `CC(=O)c1c(C)c2cnc(Nc3ccc(N4CCNCC4)cn3)nc2n(C2CCCC2)c1=O` [palbociclib] + Cn1c(Nc2ccc(C(F)(F)F)cc2)nc2cc(Oc3ccnc(-c4ncc(C(F)(F)F)[nH]4)c3)ccc21 [CHIR265] (first compound 0.04 µM, partner dose 0.08 µM) the cell count was 58.9%.
`CC(=O)O[C@@]12CO[C@@H]1C[C@H](O)[C@@]1(C)C(=O)[C@H](O)C3=C(C)[C@@H](OC(=O)[C@H](O)[C@@H](NC(=O)OC(C)(C)C)c4ccccc4)C[C@@](O)([C@@H](OC(=O)c4ccccc4)[C@H]21)C3(C)C` [Docetaxel] + NCC(=O)Nc1ccc(-n2nc(C(F)(F)F)cc2-c2ccc3c(ccc4ccccc43)c2)cc1 [OSU03012] (first compound 0.0001 µM, partner dose 1 µM) gave a cell count of 60.5%.
Molecule `CC(=O)O[C@@]12CO[C@@H]1C[C@H](O)[C@@]1(C)C(=O)[C@H](O)C3=C(C)[C@@H](OC(=O)[C@H](O)[C@@H](NC(=O)OC(C)(C)C)c4ccccc4)C[C@@](O)([C@@H](OC(=O)c4ccccc4)[C@H]21)C3(C)C` [Docetaxel] + CC(=O)c1c(C)c2cnc(Nc3ccc(N4CCNCC4)cn3)nc2n(C2CCCC2)c1=O [palbociclib] (first compound 0.0001 µM, partner dose 0.04 µM) has a cell count of 60.4%.
